# Reference: PubChem BioAssay AID1508642 (National Center for Advancing Translational Sciences (NCATS), 2021)
# The campaign covered roughly 43,000 compounds. About 200 (0.47%) were called active. Another 12% or so got no clear call; they are omitted. The call rests on the fitted dose curve; in most records, active means well fitted cell-killing curve with a large enough effect; inconclusive means small, poorly fitted or top-dose-only effect, or effect the other way; inactive means flat fitted curve, though single readings scatter. The list shows a part of the results.
# Test: Cell viability qHTS assay in S16 Pmp22-F2sN cells; further: nearly all actives have a fitted effect of over 65% in size
# Conditions: S16 Pmp22-F2sN Schwann cells viability, CellTiter-Glo, 24 h; series mostly up to 57.5 µM; activity change, negative = cytotoxicity: at the top concentration
# In short: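 Viability was measured by CellTiter-Glo luminescence (15 min, room temperature). This followed 24 h at 37 °C of compound exposure (23 nL pin transfer) in S16 Pmp22-F2sN Schwann cells, 500-1,000 per well.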
# On the % scale 0 is the no-effect control and ±100 the full control effect.
row,SMILES,"activity change, negative = cytotoxicity"
1,COc1ccc(C(=O)NCC(c2cccnc2)N2CCc3ccccc32)cc1 (centres undefined),inactive: -16.5%
2,CCOc1ccccc1NC(=O)CSc1nc2c(oc3ccccc32)c(=O)n1-c1ccc(C)c(C)c1,inactive: -9.28%
3,CCOC(=O)C1=C(CS(=O)(=O)c2cccc(C(F)(F)F)c2)NC(=O)NC1c1cccc(OC)c1 (centres undefined),inactive: 4.84%
4,O=C(CCC1N=C2c3ccccc3N=C(SCc3ccc(F)cc3)N2C1=O)NCc1cccs1 (centres undefined),inactive: -1.85%
5,CC1=C(c2ccc(C)c(C)c2)S(=O)(=O)N(Cc2ccc(C(=O)NCc3cccc(C)c3)cc2)C1=O,inactive: 3.08%
6,Cc1cccc(NC(=O)c2oc3ccccc3c2NC(=O)Cc2coc3c(C)c(C)ccc23)c1,inactive: 3.59%
7,CCOC(=O)Cc1ccc(NC(=O)N2CCOc3ccc(C)cc32)cc1,inactive: -16.6%
8,CC(C)c1ccc(NC(=O)C2CCCN(S(=O)(=O)c3cccc4cccnc34)C2)cc1 (centres undefined),inactive: -25.2%
9,CCc1nnc2c3ccccc3nc(Nc3ccc(C(C)=O)cc3)n12,inactive: -4.32%
10,Cc1ccc(OC(C)C(=O)Nc2nonc2-c2ccc(Br)cc2)cc1C (centres undefined),inactive: 2.85%
11,Cc1ccc2nc(N(Cc3cccnc3)C(=O)COc3ccccc3)sc2c1,inactive: 2.81%
12,CCOC(=O)Cn1c(=O)oc2cc(S(=O)(=O)N3CCN(c4cccc(C)c4C)CC3)ccc21,inactive: -0.0904%
13,CCOC(=O)c1cc(S(=O)(=O)N2CCN(c3ccccc3)CC2)[nH]n1,inactive: 0.329%
14,Cc1ccc(Cc2nc3ccccc3nc2SCC(=O)Nc2ccc3c(c2)OCO3)cc1,inactive: -0.168%
15,Cc1ccc(S(=O)(=O)NCCS(=O)(=O)N2CCN(c3ccccc3)CC2)cc1,inactive: -1.59%
16,COc1ccc(CNC(=O)C2CCN(Cc3nc(-c4ccc(Cl)cc4)oc3C)CC2)cc1,inactive: -0.0842%
17,Cc1nc(N2CCOCC2)c2c(C(=O)Nc3cccc(C(F)(F)F)c3)c(C)oc2n1,inactive: 0.64%
18,CSc1ccc(CCNC(=O)CCc2c(C)nc3c(c(C)nn3-c3ccccc3)c2C)cc1,inactive: -0.904%
19,O=C(NC1CC(=O)N(c2cccc(F)c2)C1)c1ccc(Br)o1 (centres undefined),inactive: 0.921%
20,Cc1ccc(CNC(=O)C(CC(C)C)NS(=O)(=O)c2ccc3c(c2)oc(=O)n3C)cc1 (centres undefined),inactive: 4.45%
21,Cc1cccc(N2CCN(CCNC(=O)C3COc4ccccc4C3)CC2)c1C (centres undefined),inactive: -27%
22,O=C(NCc1ccc(Cl)cc1)c1cnc(N2CCCCC2)c2ccccc12,inactive: 20.4%
23,O=C(O)c1cc(-n2c(/C=C\c3ccc(F)cc3)nc3ccccc3c2=O)ccc1Cl,inactive: -27.6%
24,Cc1c(S(=O)(=O)c2cccc(Cl)c2)nnn1-c1cccc(C(F)(F)F)c1,inactive: 19%
25,CCCC(=O)N1CCN(c2nc3c(OC)ccc(C)c3s2)CC1,inactive: 6.39%

row,SMILES,"activity change, negative = cytotoxicity"
1,CCOc1ccc(-n2c(SCC(=O)N3CCOCC3)nc3c([nH]c4ccccc43)c2=O)cc1,inactive: 1.24%
2,CC(C)(C)OC(=O)N1CCC(c2c(C(=O)N3CCN(C(=O)c4ccco4)CC3)cnn2-c2cccc(F)c2)CC1,inactive: -2.75%
3,COc1cc(C(=O)Nc2ccc3nc(SCc4ccc(C)cc4)sc3c2)cc(OC)c1OC,inactive: 19.2%
4,Cc1ccc(-n2nc(C(=O)N3CCC(C)CC3)c(=O)n(C)c2=O)cc1,inactive: -1.03%
5,Cc1ccc(Cl)cc1-n1ncc2c(NC3CCCCCC3)ncnc21,inactive: -2.72%
6,O=C(Nc1cccc(F)c1)c1ccc2snnc2c1,inactive: 3.62%
7,Cc1ccc(C)c(Nc2nnc(-n3nc(C)cc3C)c3ccccc23)c1,inactive: 0.289%
8,CCN(c1ccccc1)S(=O)(=O)c1nnc(NC(=O)c2cccs2)s1,inactive: -18.1%
9,CCOC(=O)c1cc(-c2ccccc2)n(CCCC(=O)Nc2ccc(C)cc2C)c1C,inactive: -5.13%
10,COc1ccc(-c2cc(C(=O)Oc3ccc(C)c(C)c3)c3ccccc3n2)cc1,inactive: 0.273%
11,Cc1cccn2c(=O)c3cc(C(=O)NCc4ccccc4Cl)sc3nc12,inactive: 6.21%
12,CCC(C)NC(=O)c1c(-c2ccccc2)c(-c2ccccc2)nn(C)c1=O (centres undefined),inactive: -4.31%
13,CC(C)(C)C(=O)N1CCN(c2nc3c(F)cccc3s2)CC1,inactive: 1.54%
14,CCOc1ccc(-n2c(SCC(=O)N3CCCCC3)nc3c([nH]c4ccccc43)c2=O)cc1,inactive: 14.9%
15,Cc1c(C(=O)N2CCC(C(=O)Nc3ccc(F)cc3)CC2)sc2nc[nH]c(=O)c12,inactive: 16.8%
16,Cc1noc2ncnc(NCc3cccc(Cl)c3)c12,inactive: -8.07%
17,Cc1cccc(-n2c3nc(=O)n(C)c(=O)c-3cc3ccc(Cl)cc32)c1C,inactive: -3.63%
18,Oc1cccc(Nc2ncnc3sc4c(c23)CCCC4)c1,inactive: -15.2%
19,CS(=O)(=O)N1CCc2cc(C(=O)NCc3ccccc3)ccc21,inactive: 1.26%
20,Cc1nc2nc(NC(=O)c3ccc(Cl)cc3)[nH]n2c(=O)c1Cc1ccccc1,inactive: -0.589%
21,O=C(CSc1nc(=O)n(Cc2ccco2)c2c1CCC2)NCc1ccc(F)cc1,inactive: 10.8%
22,CC1=C(C(=O)Nc2ccccc2C)C(c2ccccn2)n2nc(SCc3ccccc3F)nc2N1 (centres undefined),inactive: -21.2%
23,COc1ccc2nc(NC(=O)c3ccc(S(=O)(=O)N4CCCC(C)C4)cc3)sc2c1 (centres undefined),inactive: 4.75%
24,CC(NC(=O)Cn1c(-c2cccs2)cc2cc(F)ccc21)c1ccccc1 (centres undefined),inactive: 6.35%
25,O=C(NC1CC(=O)N(c2ccc(Cl)cc2)C1)c1cccs1 (centres undefined),inactive: 8.49%

row,SMILES,"activity change, negative = cytotoxicity"
1,O=c1[nH]c(SCc2ccc(Br)cc2)nc2c1CCCC2,inactive: 12.4%
2,Cc1ccc(S(=O)(=O)c2nnn3c2nc(N2CCN(c4ccccc4F)CC2)c2ccccc23)cc1C,inactive: -3.85%
3,COc1ccc(-n2c(=O)c3ccc(C(=O)NCc4ccc(C)cc4)cc3n(CC(=O)Nc3ccc(C)cc3)c2=O)cc1,inactive: -0.358%
4,Cc1ccc(Cn2c(C(=O)O)c(CNCCc3ccco3)c3ccc(C)cc32)cc1,inactive: 17.2%
5,CCOc1cc(-c2nc(-c3ccc(-c4ccc(OC)cc4)nc3OC)no2)cc(OCC)c1OCC,inactive: -2.52%
6,COCCCNC(=O)C1CCN(c2cc(C)nc3c(-c4ccc(OC)c(OC)c4)c(C)nn23)CC1,inactive: -3.14%
7,COc1ccc(Cl)cc1NC(=O)c1nn(C)c2c1CS(=O)(=O)c1ccccc1-2,inactive: 6.02%
8,COc1ccccc1NC(=O)CCn1c(=O)oc2cc(Cl)ccc21,inactive: 5.95%
9,COc1ccc(-n2cc(C(=O)NCc3cccc(OC)c3)c3ccccc3c2=O)cc1,inactive: 11.2%
10,CC(=O)c1ccc(N2CCN(C3C(=O)c4ccccc4N3C(C)=O)CC2)cc1 (centres undefined),inactive: 13.2%
11,O=S(=O)(c1ccc(Br)cc1)c1nnn2c1nc(NCc1cccs1)c1sccc12,inactive: 9.14%
12,COc1ccc(-c2cc(C(=O)NCCc3ccccc3)c3cc(C(C)C)ccc3n2)cc1,inactive: -2.7%
13,Cc1c(Cl)cccc1NC(=O)CN1C(=O)CCn2nc(-c3cccn3C)cc21,inactive: -19.9%
14,COCCN(CCOC)C(=O)c1cc2c(=O)n3ccccc3nc2n1C,inactive: 2.37%
15,CCOC(=O)C(Cc1c[nH]c2ccccc12)NC(=O)COc1ccc(Cl)cc1 (centres undefined),inactive: 10.8%
16,CC(C)Oc1ccc(CNC(=O)CCCn2c(=O)c3cccn3c3cccnc32)cc1,inactive: -14.7%
17,O=C(NCc1ccc2c(c1)CCN2C(=O)c1ccncc1)c1ccc(Cl)cc1,inactive: 1.62%
18,Cc1ccc2c(=O)c(C(=O)c3ccccc3)cn(CC(=O)Nc3ccccc3)c2n1,inactive: -23.8%
19,CCn1c(NCc2cccc(Cl)c2)nc2ccccc21,inactive: 6.28%
20,COc1cc(-c2nc3ccc(C)cn3c2Nc2ccc(Cl)cc2)ccc1O,inactive: 3.44%
21,O=C(CSc1nc(-c2ccccc2)cn1-c1ccccc1)Nc1ccccc1,inactive: -7.88%
22,COc1cccc(C(=O)NC2=NC(c3ccc(N(C)C)cc3)CC(=O)N2)c1 (centres undefined),inactive: 18.8%
23,Cc1cccc(N2CCN(c3ccc(C(=O)O)cc3NC(=O)c3ccccc3F)CC2C)c1 (centres undefined),inactive: -4.32%
24,Cn1c(=O)n(CCc2ccccc2)c(=O)c2c1nc1n2CCN1c1ccc(Cl)cc1,inactive: 12.9%
25,CCCCC(=O)Nc1ccc(C(=O)OCc2cc(=O)n3nc(C4CC4)sc3n2)cc1,inactive: -3.46%

row,SMILES,"activity change, negative = cytotoxicity"
1,COC(=O)C1=C(c2ccccc2)c2ccccc2S(=O)(=O)N1CC(=O)Nc1ccccc1C(F)(F)F,inactive: 10.4%
2,COc1ccc(S(=O)(=O)Cc2ccc(C(=O)NC3CCCCC3)o2)cc1,inactive: -5.77%
3,CC(C)CC(=O)Nc1c(C(=O)N2CCN(c3ccccc3F)CC2)oc2ccccc12,inactive: 1.97%
4,Cc1cc(C)c2c(-n3cccc3)c(C(=O)NCCc3ccccc3)sc2n1,inactive: 11.6%
5,CCN(CC)c1ccc(C(=O)NCc2ccc3c(c2)CCN3C(C)=O)cc1,inactive: 9.53%
6,CC(=O)c1ccc(N2CCN(C(=O)Nc3cccc(F)c3)CC2)cc1,inactive: -23%
7,CC(C(=O)Nc1ccccc1C(F)(F)F)n1nc(-c2ccccc2)c2c(c1=O)CCCC2 (centres undefined),inactive: -4.67%
8,Clc1ccc(CSc2nc3ncccc3[nH]2)cc1,inactive: -3.96%
9,CCCc1ccc(NC(=O)C2CCN(c3cnccn3)CC2)cc1,inactive: -3.06%
10,O=C(Nc1nonc1-c1ccc(Br)cc1)c1ccco1,inactive: -4.02%
11,COc1cccc(Cn2cc(S(=O)(=O)c3ccc(C)cc3)c(=O)c3cc4c(cc32)OCO4)c1,inactive: -11%
12,COc1ccc(NC(=O)c2ccco2)cc1NC(=O)COc1ccc(C)cc1C,inactive: 0.275%
13,CSc1cccc(NC(=O)Cn2nnc(C(=O)NCCc3ccccc3)c2N)c1,inactive: 0.698%
14,Cc1ccc(-c2nc3c4ccccc4n(Cc4cccc(Cl)c4)c(=O)n3n2)cc1,inactive: 4.87%
15,COc1ccc(OC)c(CNC(=O)C2COc3ccccc3C2)c1 (centres undefined),inactive: 2.9%
16,COc1ccc2nc(N3CCN(C(=O)c4ccco4)CC3)sc2c1,inactive: 3.33%
17,CCOC(=O)Cc1ccc(NC(=O)N2CC(CC)Oc3ccccc32)cc1 (centres undefined),inactive: 14.2%
18,CCN1CCN(CCCNC(=O)Cn2nc(C)n3c(cc4cc(C)ccc43)c2=O)CC1,inactive: 12.4%
19,Cc1cccc(CN2C(=O)c3ccccc3S(=O)(=O)c3ccc(C(=O)N4CCN(c5cc(C)ccc5C)CC4)cc32)c1,inactive: 12.9%
20,CCc1ccc(-c2cc3c(N4CCN(c5ccccc5)CC4)nccn3n2)cc1,inactive: -5.12%
21,COc1cccc(C(=O)n2nc(-c3ccco3)nc2NCc2cccs2)c1,inactive: 4.29%
22,COc1ccc(Br)cc1CNC(=O)c1ccc2c(c1)nc1n2CCCCC1,inactive: 4.18%
23,Cc1c(C(=O)NCc2ccccc2Cl)sc2nc3n(c(=O)c12)CCC3,inactive: 12.9%
24,COc1ccc(N(CC(=O)NCc2ccc(C)cc2)S(=O)(=O)c2c(C)[nH]c(=O)[nH]c2=O)cc1,inactive: 7.66%
